The supplement of paper PMC12015411
Bacterial growth in Mueller-Hinton broth at 37 °C with the drug at the dose given, alone or with nitroxoline. Checkerboards on E. coli BW25113: OD600 at the end of exponential growth as a fraction of no-drug wells. Colistin series: OD595 at 10.75 h as a fraction of the colistin-free well. 1 = full growth, lower = more inhibition. No active / inactive call per well. Checkerboard doses stop near each drug's IC75, and their values pile up at 1, as if capped there. Colistin and gentamicin are mixtures; one drawing stands for each.

System: Escherichia coli BW25113
Test: growth relative to no-drug wells (fraction of no-drug control); higher = more growth, less inhibition
Description: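 8 x 8 checkerboard in cation-adjusted Mueller-Hinton broth at 37 °C; OD600 at the end of exponential growth as a fraction of no-drug wells, two biological replicates.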

CC[C@H]1OC(=O)[C@H](C)[C@@H](O[C@H]2C[C@@](C)(OC)[C@@H](O)[C@H](C)O2)[C@H](C)[C@@H](O[C@@H]2O[C@H](C)C[C@H](N(C)C)[C@H]2O)[C@](C)(O)C[C@@H](C)C(=O)[C@H](C)[C@@H](O)[C@]1(C)O [Erythromycin] + Oc1ccc([N+](=O)[O-])c2cccnc12 [nitroxoline]
growth
Conditions	nitroxoline concentration 0.136 µg/ml	nitroxoline concentration 0.255 µg/ml	nitroxoline concentration 0.374 µg/ml	nitroxoline concentration 0.493 µg/ml	nitroxoline concentration 0.612 µg/ml	nitroxoline concentration 0.731 µg/ml	nitroxoline concentration 0.85 µg/ml
1.1176 µg/ml	0.685	0.6253	0.561	0.56	0.431	0.263	0.24
2.098 µg/ml	0.642	0.629	0.504	0.386	0.491	0.247	0.245
3.0784 µg/ml	0.584	0.547	0.432	0.398	0.32	0.2708	0.234
4.0588 µg/ml	0.624	0.483	0.435	0.349	0.235	0.253	0.227
5.0392 µg/ml	0.59	0.526	0.395	0.276	0.248	0.216	0.209
6.0196 µg/ml	0.622	0.524	0.384	0.246	0.203	0.161	0.184
7 µg/ml	0.615	0.48	0.314	0.253	0.227	0.194	0.215

C[C@@H]1O[C@@H]1P(=O)(O)O [Fosfomycin]
nitroxoline concentration 0 µg/ml
Conditions	growth
0.0625 µg/ml	0.989
0.1075 µg/ml	0.897
0.125 µg/ml	0.82
0.215 µg/ml	0.596
0.25 µg/ml	0.0133
0.43 µg/ml	0.0838
0.5 µg/ml	0.0572

C[C@@H]1O[C@@H]1P(=O)(O)O [Fosfomycin] + Oc1ccc([N+](=O)[O-])c2cccnc12 [nitroxoline]
growth
Conditions	nitroxoline concentration 0.136 µg/ml	nitroxoline concentration 0.255 µg/ml	nitroxoline concentration 0.374 µg/ml	nitroxoline concentration 0.493 µg/ml	nitroxoline concentration 0.612 µg/ml	nitroxoline concentration 0.731 µg/ml	nitroxoline concentration 1.1 µg/ml
0.0625 µg/ml	0.957	0.877	0.822	0.574	0.535	0.222	0.125
0.1075 µg/ml	0.857	0.852	0.87	0.618	0.522	0.271	0.158
0.125 µg/ml	0.7834	0.754	0.82	0.587	0.531	0.274	0.18
0.215 µg/ml	0.6	0.587	0.56	0.44	0.327	0.16	0.124
0.25 µg/ml	0.0125	0.0108	0.02	0.02	0.02	0.0167	0.0133
0.43 µg/ml	0.0423	0.043	0.0404	0.0418	0.0395	0.0332	0.029
0.5 µg/ml	0.0393	0.0409	0.0453	0.0402	0.0394	0.0315	0.0367

CNC(C)C1CCC(N)C(OC2C(N)CC(N)C(OC3OCC(C)(O)C(NC)C3O)C2O)O1 (stereo unspecified) [Gentamicin]
nitroxoline concentration 0 µg/ml
Conditions	growth
0.035 µg/ml	0.957
0.06 µg/ml	0.899
0.07 µg/ml	0.895
0.12 µg/ml	0.562
0.14 µg/ml	0.417
0.24 µg/ml	0.0487
0.28 µg/ml	0.0373

CNC(C)C1CCC(N)C(OC2C(N)CC(N)C(OC3OCC(C)(O)C(NC)C3O)C2O)O1 (stereo unspecified) [Gentamicin] + Oc1ccc([N+](=O)[O-])c2cccnc12 [nitroxoline]
growth
Conditions	nitroxoline concentration 0.136 µg/ml	nitroxoline concentration 0.255 µg/ml	nitroxoline concentration 0.374 µg/ml	nitroxoline concentration 0.493 µg/ml	nitroxoline concentration 0.612 µg/ml	nitroxoline concentration 0.731 µg/ml	nitroxoline concentration 0.85 µg/ml
0.035 µg/ml	1	0.915	0.834	0.707	0.619	0.511	0.477
0.06 µg/ml	0.926	0.889	0.768	0.685	0.599	0.51	0.471
0.07 µg/ml	0.928	0.851	0.767	0.672	0.558	0.495	0.502
0.12 µg/ml	0.858	0.79	0.658	0.61	0.587	0.503	0.502
0.14 µg/ml	0.754	0.797	0.628	0.584	0.548	0.475	0.468
0.24 µg/ml	0.339	0.465	0.346	0.37	0.403	0.255	0.312
0.28 µg/ml	0.0287	0.349	0.387	0.452	0.408	0.32	0.265
